Consider three substances from PMC5827661.

Chains of the proteins cited; added tags and fusions are not shown. Residues count along the entry.
UniProt Q60751, residues 31-1373: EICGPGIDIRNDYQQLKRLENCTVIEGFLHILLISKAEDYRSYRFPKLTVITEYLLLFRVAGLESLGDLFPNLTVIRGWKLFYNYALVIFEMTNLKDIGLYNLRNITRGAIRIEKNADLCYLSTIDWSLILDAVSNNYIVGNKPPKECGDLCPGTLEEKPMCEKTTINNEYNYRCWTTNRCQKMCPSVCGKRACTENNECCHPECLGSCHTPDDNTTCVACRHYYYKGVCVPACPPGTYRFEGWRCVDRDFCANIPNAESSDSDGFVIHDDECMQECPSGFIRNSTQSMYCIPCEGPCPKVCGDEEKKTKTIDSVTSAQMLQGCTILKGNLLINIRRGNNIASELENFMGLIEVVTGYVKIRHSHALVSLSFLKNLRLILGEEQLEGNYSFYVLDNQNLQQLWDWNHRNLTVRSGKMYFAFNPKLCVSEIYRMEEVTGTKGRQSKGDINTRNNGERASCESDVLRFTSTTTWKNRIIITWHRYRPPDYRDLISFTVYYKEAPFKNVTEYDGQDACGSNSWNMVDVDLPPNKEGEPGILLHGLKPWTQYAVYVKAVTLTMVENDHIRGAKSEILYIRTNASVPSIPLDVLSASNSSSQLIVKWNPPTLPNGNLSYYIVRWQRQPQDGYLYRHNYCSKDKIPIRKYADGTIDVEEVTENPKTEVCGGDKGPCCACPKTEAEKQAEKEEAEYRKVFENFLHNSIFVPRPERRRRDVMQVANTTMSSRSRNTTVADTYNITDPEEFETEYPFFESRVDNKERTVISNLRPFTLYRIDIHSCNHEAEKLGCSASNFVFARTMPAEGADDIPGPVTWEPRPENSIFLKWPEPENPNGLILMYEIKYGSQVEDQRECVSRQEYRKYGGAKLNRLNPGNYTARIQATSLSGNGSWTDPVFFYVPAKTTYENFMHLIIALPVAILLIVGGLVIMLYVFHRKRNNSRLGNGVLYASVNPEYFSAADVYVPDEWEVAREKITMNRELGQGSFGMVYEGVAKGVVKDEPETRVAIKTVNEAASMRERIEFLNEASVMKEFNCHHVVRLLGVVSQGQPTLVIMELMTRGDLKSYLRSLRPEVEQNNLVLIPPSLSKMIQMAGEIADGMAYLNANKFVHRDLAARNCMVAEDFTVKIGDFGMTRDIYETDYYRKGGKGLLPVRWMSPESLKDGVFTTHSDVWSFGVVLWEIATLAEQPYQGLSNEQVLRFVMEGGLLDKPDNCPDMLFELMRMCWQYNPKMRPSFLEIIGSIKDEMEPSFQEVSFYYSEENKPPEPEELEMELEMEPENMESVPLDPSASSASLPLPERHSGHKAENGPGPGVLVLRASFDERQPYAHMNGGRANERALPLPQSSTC
UniProt P08069, residues 31-1367: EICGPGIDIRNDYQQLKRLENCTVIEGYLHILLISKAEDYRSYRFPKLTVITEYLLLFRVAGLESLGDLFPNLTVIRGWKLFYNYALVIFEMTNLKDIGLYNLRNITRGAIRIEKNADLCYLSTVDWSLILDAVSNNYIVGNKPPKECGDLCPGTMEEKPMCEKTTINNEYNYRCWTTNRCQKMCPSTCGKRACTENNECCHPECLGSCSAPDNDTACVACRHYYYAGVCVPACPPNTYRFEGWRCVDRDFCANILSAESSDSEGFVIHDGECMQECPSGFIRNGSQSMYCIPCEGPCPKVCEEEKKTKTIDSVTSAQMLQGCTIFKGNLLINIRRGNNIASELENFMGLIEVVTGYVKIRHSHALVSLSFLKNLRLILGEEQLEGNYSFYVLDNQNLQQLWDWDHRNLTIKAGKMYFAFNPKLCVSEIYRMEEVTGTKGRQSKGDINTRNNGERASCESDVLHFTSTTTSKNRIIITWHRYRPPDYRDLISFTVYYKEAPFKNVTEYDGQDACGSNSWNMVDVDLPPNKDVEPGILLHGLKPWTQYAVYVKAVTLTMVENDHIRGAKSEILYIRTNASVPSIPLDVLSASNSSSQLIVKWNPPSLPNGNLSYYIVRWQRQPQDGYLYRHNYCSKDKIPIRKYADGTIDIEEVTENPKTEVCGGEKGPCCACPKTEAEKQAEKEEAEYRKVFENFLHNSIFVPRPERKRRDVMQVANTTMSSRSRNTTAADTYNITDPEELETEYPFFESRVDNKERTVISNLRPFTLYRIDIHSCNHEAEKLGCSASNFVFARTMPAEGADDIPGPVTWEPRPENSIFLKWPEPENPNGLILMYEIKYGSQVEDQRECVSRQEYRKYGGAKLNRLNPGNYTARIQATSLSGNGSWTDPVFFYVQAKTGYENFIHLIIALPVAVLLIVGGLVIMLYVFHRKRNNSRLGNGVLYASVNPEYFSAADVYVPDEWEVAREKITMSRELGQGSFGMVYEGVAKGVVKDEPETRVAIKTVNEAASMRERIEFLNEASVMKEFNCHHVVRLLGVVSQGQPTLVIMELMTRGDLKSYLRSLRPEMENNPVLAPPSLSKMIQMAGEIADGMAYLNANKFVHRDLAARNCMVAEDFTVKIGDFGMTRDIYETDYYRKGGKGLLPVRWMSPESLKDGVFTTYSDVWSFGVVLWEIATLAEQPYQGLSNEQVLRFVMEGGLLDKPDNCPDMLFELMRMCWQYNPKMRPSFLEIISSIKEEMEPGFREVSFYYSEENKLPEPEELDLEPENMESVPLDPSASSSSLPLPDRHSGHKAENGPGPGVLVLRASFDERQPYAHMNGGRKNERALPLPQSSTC
UniProt P41593, residues 27-591: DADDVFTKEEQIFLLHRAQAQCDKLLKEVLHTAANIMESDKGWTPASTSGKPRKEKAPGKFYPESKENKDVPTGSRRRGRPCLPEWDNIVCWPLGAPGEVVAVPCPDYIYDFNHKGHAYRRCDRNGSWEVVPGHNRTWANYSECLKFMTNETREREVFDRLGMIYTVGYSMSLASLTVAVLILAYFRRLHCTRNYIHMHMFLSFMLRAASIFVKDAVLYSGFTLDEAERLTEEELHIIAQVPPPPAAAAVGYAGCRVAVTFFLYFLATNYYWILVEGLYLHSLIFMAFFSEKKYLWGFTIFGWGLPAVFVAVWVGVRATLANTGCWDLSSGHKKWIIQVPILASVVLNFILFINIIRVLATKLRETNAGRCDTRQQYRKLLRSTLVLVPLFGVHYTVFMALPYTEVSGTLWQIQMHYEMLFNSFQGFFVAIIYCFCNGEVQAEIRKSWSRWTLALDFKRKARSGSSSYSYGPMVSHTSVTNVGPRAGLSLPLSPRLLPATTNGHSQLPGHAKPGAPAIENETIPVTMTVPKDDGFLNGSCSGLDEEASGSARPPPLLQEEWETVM
UniProt Q03431, residues 27-593: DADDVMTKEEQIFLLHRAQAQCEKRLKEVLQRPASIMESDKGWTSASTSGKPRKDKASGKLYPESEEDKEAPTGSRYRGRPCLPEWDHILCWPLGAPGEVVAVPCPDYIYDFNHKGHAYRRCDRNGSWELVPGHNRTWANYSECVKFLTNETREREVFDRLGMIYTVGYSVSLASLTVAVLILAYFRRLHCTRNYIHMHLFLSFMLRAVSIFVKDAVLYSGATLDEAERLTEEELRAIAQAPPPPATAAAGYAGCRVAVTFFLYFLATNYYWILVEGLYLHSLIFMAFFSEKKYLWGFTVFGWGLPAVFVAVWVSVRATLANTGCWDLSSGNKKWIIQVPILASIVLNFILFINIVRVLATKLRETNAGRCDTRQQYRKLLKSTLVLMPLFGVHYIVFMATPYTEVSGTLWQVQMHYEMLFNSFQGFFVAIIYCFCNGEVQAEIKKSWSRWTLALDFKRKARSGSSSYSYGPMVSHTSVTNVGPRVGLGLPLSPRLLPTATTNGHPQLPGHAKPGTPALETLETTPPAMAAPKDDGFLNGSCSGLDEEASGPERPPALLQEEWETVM

In assay [1] the target is IGF1R (endogenous, primary calvarial osteoblasts) (not stated (endogenous in primary calvarial osteoblasts)) (UniProt Q60751). As to the kind of experiment: co-IP; primary calvarial osteoblasts, endogenous proteins, vehicle; cell extracts immunoprecipitated and immunoblotted.
For assay [2] the target is unchanged. Kind of assay: co-IP; primary calvarial osteoblasts, endogenous proteins, treated with PTH for 30 min; cell extracts immunoprecipitated and immunoblotted.
Assay [3] shares this target. Kind of assay: co-IP; primary calvarial osteoblasts, endogenous proteins, treated with IGF-1 for 30 min; cell extracts immunoprecipitated and immunoblotted.
The target in assay [4] is IGF1R-Flag (human) (UniProt P08069). Kind of assay: co-IP; HEK293 cells transfected with IGF1R-Flag and PTH1R-HA plasmids, treated with IGF-1 for 30 min; cell extracts immunoprecipitated and immunoblotted.
Assay [5] has the same target. As to the kind of experiment: co-IP; HEK293 cells transfected with IGF1R-Flag and PTH1R-HA plasmids, vehicle; cell extracts immunoprecipitated and immunoblotted.
Assay [6] shares this target. As to the kind of experiment: co-IP; HEK293 cells transfected with IGF1R-Flag and PTH1R-HA plasmids, treated with PTH for 30 min; cell extracts immunoprecipitated and immunoblotted.
In assay [7] the target is IGF1R-YFP1 (human) (UniProt P08069). As to the kind of experiment: split reporter; YFP-based protein-fragment complementation assay (YFP-PCA) in HEK293 cells transfected with both plasmids, treated with PTH for 5 min.
Assay [8] has the same target. As to the kind of experiment: split reporter; YFP-based protein-fragment complementation assay (YFP-PCA) in HEK293 cells transfected with both plasmids, treated with IGF-1 for 5 min; images and fluorimetry.
Assay [9] shares this target. Kind of assay: split reporter; YFP-based protein-fragment complementation assay (YFP-PCA) in HEK293 cells transfected with both plasmids, treated with vehicle for 5 min.

No constants are given. Whether binding was seen depends on the method and setting. Binding seen in cells or lysates may run through a third protein. Some entries that bind do so weakly or less than the wild type.

“PTH1R (endogenous, primary calvarial osteoblasts) (from UniProt P41593 27-591) (receptor)”: the binding result in assay [1] is reported as “no binding (condition: vehicle, without IGF-1)”; in assay [2], “no binding (condition: with PTH, without IGF-1)”; in [3] it was “binds”.

With “PTH1R-HA (from UniProt Q03431 27-593) (receptor)”, the binding result in assay [4] is reported as “binds”; in assay [5], “no binding (condition: vehicle, without IGF-1)”; in [6], “no binding (condition: with PTH, without IGF-1)”.

For “PTH1R-YFP2 (from UniProt Q03431 27-593) (receptor)”, the binding result in [7] was “no binding (condition: with PTH, without IGF-1)”; in assay [8], “binds”; in [9], “no binding (condition: vehicle, without IGF-1)”.
